Where a chain is given by its changes, count along the chain named. The list shows a part of the results.
B1: UUUACCG (DNA:RNA)
RNA: GGGAGACCGGAAUUCAGAUUGUCCUUUACCGUUAAAUCCCGUCGUAGCCACCA
DNA 1: CAATCTGAATTCCGGTCTCCC
DNA 2: TGGTGGCTACGACGGGATT
B2: GAUACAA (DNA:RNA)
RNA: B1 RNA with U25G, U26A, C30A, G31A
DNA 1: CAATCTGAATTCCGGTCTCCC
DNA 2: TGGTGGCTACGACGGGATT
B3: AACCCCA (DNA:RNA)
RNA: B1 RNA with U25A, U26A, U27C, A28C, G31A
DNA 1: CAATCTGAATTCCGGTCTCCC
DNA 2: TGGTGGCTACGACGGGATT
B4: AAGCAAG (DNA:RNA)
RNA: B1 RNA with U25A, U26A, U27G, A28C, C29A, C30A
DNA 1: CAATCTGAATTCCGGTCTCCC
DNA 2: TGGTGGCTACGACGGGATT
B5: GGACAGA (DNA:RNA)
RNA: GGGAGACCGGAAUUCAGAUUGUCCGGACAGAUUAAAUCCCGUCGUAGCCACCA
DNA 1: CAATCTGAATTCCGGTCTCCC
DNA 2: TGGTGGCTACGACGGGATT
B6: ACGUGGC (DNA:RNA)
RNA: B5 RNA with G25A, G26C, A27G, C28U, A29G, A31C
DNA 1: CAATCTGAATTCCGGTCTCCC
DNA 2: TGGTGGCTACGACGGGATT
B7: GAUCGGU (DNA:RNA)
RNA: B5 RNA with G26A, A27U, A29G, A31U
DNA 1: CAATCTGAATTCCGGTCTCCC
DNA 2: TGGTGGCTACGACGGGATT
B8: CACUAAA (DNA:RNA)
RNA: B5 RNA with G25C, G26A, A27C, C28U, G30A
DNA 1: CAATCTGAATTCCGGTCTCCC
DNA 2: TGGTGGCTACGACGGGATT
B9: GGACCUG (DNA:RNA)
RNA: B5 RNA with A29C, G30U, A31G
DNA 1: CAATCTGAATTCCGGTCTCCC
DNA 2: TGGTGGCTACGACGGGATT
B10: GGGAUGA (DNA:RNA)
RNA: B5 RNA with A27G, C28A, A29U
DNA 1: CAATCTGAATTCCGGTCTCCC
DNA 2: TGGTGGCTACGACGGGATT
B11: AUUGCAC (DNA:RNA)
RNA: B1 RNA with U25A, A28G, C30A, G31C
DNA 1: CAATCTGAATTCCGGTCTCCC
DNA 2: TGGTGGCTACGACGGGATT
B12: CACUUUG (DNA:RNA)
RNA: B1 RNA with U25C, U26A, U27C, A28U, C29U, C30U
DNA 1: CAATCTGAATTCCGGTCTCCC
DNA 2: TGGTGGCTACGACGGGATT
B13: GAUGGGA (DNA:RNA)
RNA: B5 RNA with G26A, A27U, C28G, A29G
DNA 1: CAATCTGAATTCCGGTCTCCC
DNA 2: TGGTGGCTACGACGGGATT
B14: AAGUUCC (DNA:RNA)
RNA: B1 RNA with U25A, U26A, U27G, A28U, C29U, G31C
DNA 1: CAATCTGAATTCCGGTCTCCC
DNA 2: TGGTGGCTACGACGGGATT
B15: CGAAUUG (DNA:RNA)
RNA: B5 RNA with G25C, C28A, A29U, G30U, A31G
DNA 1: CAATCTGAATTCCGGTCTCCC
DNA 2: TGGTGGCTACGACGGGATT
B16: ACGGAAG (DNA:RNA)
RNA: B5 RNA with G25A, G26C, A27G, C28G, G30A, A31G
DNA 1: CAATCTGAATTCCGGTCTCCC
DNA 2: TGGTGGCTACGACGGGATT
B17: CGCUCUG (DNA:RNA)
RNA: B1 RNA with U25C, U26G, U27C, A28U, C30U
DNA 1: CAATCTGAATTCCGGTCTCCC
DNA 2: TGGTGGCTACGACGGGATT
B18: GGCUACA (DNA:RNA)
RNA: B5 RNA with A27C, C28U, G30C
DNA 1: CAATCTGAATTCCGGTCTCCC
DNA 2: TGGTGGCTACGACGGGATT
B19: ACGUAUG (DNA:RNA)
RNA: B5 RNA with G25A, G26C, A27G, C28U, G30U, A31G
DNA 1: CAATCTGAATTCCGGTCTCCC
DNA 2: TGGTGGCTACGACGGGATT
B20: CGAGUGG (DNA:RNA)
RNA: B5 RNA with G25C, C28G, A29U, A31G
DNA 1: CAATCTGAATTCCGGTCTCCC
DNA 2: TGGTGGCTACGACGGGATT
B21: UGCGUGG (DNA:RNA)
RNA: B5 RNA with G25U, A27C, C28G, A29U, A31G
DNA 1: CAATCTGAATTCCGGTCTCCC
DNA 2: TGGTGGCTACGACGGGATT
B22: GCGGGGC (DNA:RNA)
RNA: B5 RNA with G26C, A27G, C28G, A29G, A31C
DNA 1: CAATCTGAATTCCGGTCTCCC
DNA 2: TGGTGGCTACGACGGGATT
B23: CGCGCUU (DNA:RNA)
RNA: B5 RNA with G25C, A27C, C28G, A29C, G30U, A31U
DNA 1: CAATCTGAATTCCGGTCTCCC
DNA 2: TGGTGGCTACGACGGGATT
B24: GGGGACG (DNA:RNA)
RNA: B5 RNA with A27G, C28G, G30C, A31G
DNA 1: CAATCTGAATTCCGGTCTCCC
DNA 2: TGGTGGCTACGACGGGATT
B25: CUUCUUG (DNA:RNA)
RNA: B1 RNA with U25C, A28C, C29U, C30U
DNA 1: CAATCTGAATTCCGGTCTCCC
DNA 2: TGGTGGCTACGACGGGATT
B26: ACGGAUA (DNA:RNA)
RNA: B5 RNA with G25A, G26C, A27G, C28G, G30U
DNA 1: CAATCTGAATTCCGGTCTCCC
DNA 2: TGGTGGCTACGACGGGATT
B27: UGUCAAC (DNA:RNA)
RNA: B5 RNA with G25U, A27U, G30A, A31C
DNA 1: CAATCTGAATTCCGGTCTCCC
DNA 2: TGGTGGCTACGACGGGATT
B28: CUAUAGU (DNA:RNA)
RNA: B5 RNA with G25C, G26U, C28U, A31U
DNA 1: CAATCTGAATTCCGGTCTCCC
DNA 2: TGGTGGCTACGACGGGATT
B29: UAUCCGU (DNA:RNA)
RNA: B1 RNA with U26A, A28C, C30G, G31U
DNA 1: CAATCTGAATTCCGGTCTCCC
DNA 2: TGGTGGCTACGACGGGATT
B30: UGCUUCC (DNA:RNA)
RNA: B1 RNA with U26G, U27C, A28U, C29U, G31C
DNA 1: CAATCTGAATTCCGGTCTCCC
DNA 2: TGGTGGCTACGACGGGATT
B31: GAGUUCA (DNA:RNA)
RNA: B5 RNA with G26A, A27G, C28U, A29U, G30C
DNA 1: CAATCTGAATTCCGGTCTCCC
DNA 2: TGGTGGCTACGACGGGATT

Target: T1, RBFOX1 RRM (Homo sapiens, UniProt Q9NWB1 109-208)
T1 sequence: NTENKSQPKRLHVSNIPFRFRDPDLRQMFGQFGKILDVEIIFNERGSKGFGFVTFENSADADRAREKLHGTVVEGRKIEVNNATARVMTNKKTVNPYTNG
Assay: EMSA; HiTS-Eq, 1 nM pool, 10 min; buffer printed only for the single-RNA assays: 10 mM Tris pH 7.5, 150 mM NaCl, 3.4 mM EDTA, 0.001% NP-40, 30 C
Conditions: tags: His6 N-terminal (pET28a); label: 5' 32P
Method in brief: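 These values rest on relative association constants, computed from read-count changes of each RNA species versus the control reaction and normalised to the cognate motif. Reads came from free RNA recovered by 8% native PAGE after purified RbFox RRM (wild type or mutant) at increasing concentrations was equilibrated for 10 min in 50 µL with 1 nM of a 5′-radiolabelled pool with 7 randomized nucleotides and DNA-annealed flanks.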

Binder | binding signal
B1 | 0.00569 KA relative to UGCAUGU
B2 | 0.00227 KA relative to UGCAUGU
B3 | 0.00033 KA relative to UGCAUGU
B4 | 0.00797 KA relative to UGCAUGU
B5 | 0.0189 KA relative to UGCAUGU
B6 | 0.0095 KA relative to UGCAUGU
B7 | 0.0158 KA relative to UGCAUGU
B8 | 0.00134 KA relative to UGCAUGU
B9 | 0.0243 KA relative to UGCAUGU
B10 | 0.0379 KA relative to UGCAUGU
B11 | 0.0167 KA relative to UGCAUGU
B12 | 0.0116 KA relative to UGCAUGU
B13 | 0.00898 KA relative to UGCAUGU
B14 | 0.00672 KA relative to UGCAUGU
B15 | 0.00904 KA relative to UGCAUGU
B16 | 0.0086 KA relative to UGCAUGU

Binder | binding signal
B17 | 0.0172 KA relative to UGCAUGU
B18 | 0.00197 KA relative to UGCAUGU
B19 | 0.0128 KA relative to UGCAUGU
B20 | 0.0101 KA relative to UGCAUGU
B21 | 0.0211 KA relative to UGCAUGU
B22 | 0.0231 KA relative to UGCAUGU
B23 | 0.0107 KA relative to UGCAUGU
B24 | 0.0277 KA relative to UGCAUGU
B25 | 0.0157 KA relative to UGCAUGU
B26 | 0.0095 KA relative to UGCAUGU
B27 | 0.00884 KA relative to UGCAUGU
B28 | 0.00705 KA relative to UGCAUGU
B29 | 0.00816 KA relative to UGCAUGU
B30 | 0.0171 KA relative to UGCAUGU
B31 | 0.0118 KA relative to UGCAUGU

Source: paper PMC9911399, “Two distinct binding modes provide the RNA-binding protein RbFox with extraordinary sequence specificity”
